Measurements: the supplement of paper PMC5499739
The full ranking holds about 16,000 sequences; the median of “Z-score” is about -0.37, and the highest 2% start at about 3.1. The list shows a part of the results.

System: RBM10 RRM1-ZnF-RRM2 (GST-tagged construct)
Assay: RNAcompete 7-mer binding Z-score; higher = stronger binding preference
Method in brief: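 A one-sided Z-score for enrichment, taken across the probes containing each heptamer motif, was assigned to every such motif. The RNA came from a designed pool of 241 399 sequences up to 41 nt (1.5 nmol), bound by 20 pmol of GST-tagged RBM10 constructs in 1 ml Hepes pH 7.8 buffer with glutathione Sepharose beads for 30 min at 4°C. Four 2-min washes at 4°C preceded identification of bound RNA by microarray hybridisation.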

Sequence	RNAcompete 7-mer binding Z-score
AACUAUC	-0.635
GCGGAUC	0.793
AUAUGCA	-0.027
AGGAUUG	1.45
GCGGUAC	0.599
GAGUUAC	0.151
GUUCGCU	-0.581
GUUGCCU	-0.613
CUAAGGA	0.286
CGGUCUU	-0.694
GUCGGUA	0.709
GGCUCAU	-0.395
AUCUCUU	-0.846
UGACAAG	0.348
UGCGGCC	-0.439
GGCACUU	-0.468
UGGCCCU	-0.522
CUGCGGU	0.0714
UCCGUCU	-0.763
UUAUAGU	-0.442
CUACGGG	1.08
AACGUUC	-0.602
GGUGAAC	1.77
GUAGAUU	0.166
AGGGAUU	2.37

Sequence	RNAcompete 7-mer binding Z-score
GGAGACA	1.88
CGCCGAU	-0.664
GAGCGGG	3.33
UGUAUUG	-0.398
CCUGAGU	-0.621
AACAGCU	-0.544
UCCAAAG	-0.38
CUGCAAA	-0.508
UCCCGCU	-0.795
UACGGAG	0.982
CAGAACU	-0.482
CUGCCCU	-0.854
AGGUGUG	2.32
CGGCACU	-0.398
GAACACU	-0.388
AUUUUAC	-0.948
GUUUGCC	-0.409
AUAUGAC	-0.286
UGUUAGU	-0.286
GAAGGCU	0.581
GUUUGGC	0.243
CACGGCA	0.188
GAGCAUC	-0.377
CGAACGU	-0.235
GCAGUUU	-0.442

Sequence	RNAcompete 7-mer binding Z-score
AUUUCUC	-0.828
GCCGGUG	0.366
GACGGUG	1.7
GCGGCCG	0.137
CGCCCUU	-0.734
UUCGAGU	-0.333
GAUGGAG	3.16
CUCUCUA	-0.715
GUGGUAG	2.26
ACCUUGC	-0.967
UAUAGAG	0.286
UUAUAUA	-0.5
UCCGGGA	0.301
AAGAACC	-0.562
CAGGGUC	1.42
GCGCUGC	-0.0598
GUGGUUU	1.1
UCUAUUC	-0.734
CUGGGAG	1.4
ACCCAUC	-0.985
GCUUGCG	-0.544
UGGCUGA	0.141
GCUGCCG	-0.213
AGAACCC	-0.985
GACCCCC	-0.551

Sequence	RNAcompete 7-mer binding Z-score
UGAACCG	-0.165
UUCUGUA	-0.613
CACACCA	-0.672
GUCCGGC	-0.526
GCCUGGC	-0.413
CCUCACU	-0.821
CACCCGA	-0.795
UUCCAGA	-0.519
CGUUCCC	-0.664
UGGUCAA	0.192
GGGUUAA	2.84
GGGAAAA	3.43
GCUCUCG	-0.42
AAGAAUU	-0.286
AGAAGAC	0.0349
AGCUAAC	-0.326
UUAUGAG	-0.0488
ACCUGCU	-0.948
ACCUCCU	-0.941
CCAAUAC	-0.559
UAGGUCG	0.865
AUGGCCG	0.104
AAGUCAG	0.308
CAUGACC	-0.901
AGUAGCC	-0.235

Sequence	RNAcompete 7-mer binding Z-score
CGUAGGA	1.7
GCGAGCC	0.213
UUAAGCU	-0.755
AAAAGGA	3.25
GCUGACC	-0.661
UUCCGUG	-0.453
UCGCGAG	-0.114
UAGGACG	1.73
CCUACGA	-0.675
GGAACGC	0.978
CCCCUAA	-0.683
GCACUGC	-0.326
CUCCACC	-0.755
ACAGCCG	-0.551
GGAGUGC	1.56
AGUGAUA	0.428
UGGCGGC	1.16
AGGGGUA	3.66
CUGAUGA	-0.683
UCUGGCA	-0.664
UGUUGUA	-0.165
AAAUUAG	-0.114
UAGGGGA	3.81
AGUUUGG	1.46
GCCCCCA	-0.468

Sequence	RNAcompete 7-mer binding Z-score
UCGCCUC	-0.945
UAUGUGG	0.88
GGCUCAC	-0.388
AAGUCUA	-0.544
AACAGUA	0.192
CGUUUAG	-0.65
UUUACAA	-0.617
GUUACAA	0.461
CUAAAUG	-0.406
GGCGUUC	0.126
CAAACCC	-0.785
UAUACGU	-0.271
AAACGUC	-0.613
GUGCCUC	-0.497
CCAUAAG	-0.541
GGGCAUU	1.11
GCUGCGU	-0.318
AAAAUGU	-0.173
UCUUUUU	-0.799
AUGUAGG	2.18
UGUGGUC	0.202
CGUGCAG	0.108
CUGUCCU	-0.817
AUGAGUG	1.13
CUGCGGA	0.0349

Sequence	RNAcompete 7-mer binding Z-score
UACCUGU	-0.857
CUUCGAA	-0.777
CCCCAGG	-0.246
UGUAUUU	-0.836
UGAGAGA	0.76
AGCCGGU	-0.231
AAAUCCU	-0.715
AAUUACG	-0.3
AAUCGGA	0.701
CAGAUAG	0.024
UCCUAAA	-0.781
UAUGGCA	0.782
CGCGCAA	-0.581
UCAUGCU	-0.715
GUUUCAU	-0.402
GAGGUGU	2.31
CAGCAUC	-0.704
CGCAUAA	-0.439
ACUAGAC	-0.595
GUUGCCC	-0.606
AAAGACG	0.752
AUUUAAU	-0.628
UAUUUCG	-0.73
CUCGGUU	-0.559
UUUGUCA	-0.61

Sequence	RNAcompete 7-mer binding Z-score
ACGGUCG	0.0459
UAACGGA	1.09
UUACUCG	-0.632
GUCGACG	0.224
CCUGGCC	-0.817
UUCUAGA	-0.708
AAAGCUG	-0.256
ACUCGCC	-0.868
UCACCAU	-0.795
GUGCGUU	0.108
CCAAAGC	-0.544
CACUGUU	-0.69
AGAGAAC	-0.0343
GCUCAUG	-0.683
AUCUAAG	-0.453
CCCCAGU	-0.555
UUGAGAA	0.294
CGUAUCA	-0.471
CGUAUAU	-0.388
UCUACGU	-0.624
CGCGGAU	0.465
CUCGAAU	-0.715
GGGAAUA	3.15
CUCUUGU	-0.85
UUGAGCU	-0.479

Sequence	RNAcompete 7-mer binding Z-score
GUAGUAG	1.08
AUAACGA	-0.333
AAGCUUU	-0.836
AGGCGGC	0.425
GGAAACU	0.304
CUUGCGU	-0.759
CCACUGC	-0.599
AGUUUAG	0.101
AAUCAAA	-0.398
GGCCGAG	0.45
UGACUAU	-0.468
CGCCUUG	-0.624
CAUGUAA	-0.289
GGGCCUC	-0.176
GCUCCCA	-0.61
UGUAUUA	-0.162
GUGUGCA	0.366
CAUAAUA	-0.653
GAUACCU	-0.774
ACUUAUA	-0.672
CCGGAUA	0.119
UCGCAUC	-0.577
GAUGAGC	0.873
UGGAAAG	2.78
CACACAC	-0.468

Sequence	RNAcompete 7-mer binding Z-score
GGGUACA	3.39
CAGUCUU	-0.857
UUUUGUC	-0.704
AACAUAG	0.345
UACAACG	0.195
AACGGCA	0.661
GAGUGAA	1.13
GUAUCCC	-0.566
UUAGCCA	-0.617
AGCAGUG	1
CGUGGUU	0.698
GCCUAGU	-0.544
ACUCUUU	-0.887
UGUACUG	-0.34
UGGCUUG	0.0641
UUUCUAC	-0.752
AAUACUU	-0.806
UCAUAUA	-0.468
ACAUCCA	-0.632
AUGCGAU	-0.0707
ACCGAAA	-0.57
GCAUCCG	-0.377
AUGCUUC	-0.894
GCCGGGU	1.29
AACACAU	-0.202

Sequence	RNAcompete 7-mer binding Z-score
CAGAAGU	0.0495
ACAUACU	-0.621
GGCUGGA	1.04
CGUCCUU	-0.861
GAUGUUC	-0.788
AAGUUAG	0.465
GGCGCAG	1.35
GUGCUUU	-0.566
AAGGAAC	2.66
GCACAUC	-0.515
AGUCUUA	-0.584
UUACGCA	-0.592
AGGUGGC	1.62
CGCGGCU	-0.366
AUUCCAU	-0.519
UGAGCUU	-0.584
UGAGCGG	2.06
UAUAUGA	-0.453
GUUAACC	-0.286
UUUCAAU	-0.515
CCACGCC	-0.679
GGCAGCG	1.49
CCGUCAC	-0.657
CGCCCGC	-0.785
GAGCCUG	-0.719

Sequence	RNAcompete 7-mer binding Z-score
UGCAUCU	-0.766
GUUCAAC	-0.38
GCCGAUA	-0.417
GUCCCCG	-0.307
ACGUUAA	-0.369
UACCGCG	-0.22
UAUACCU	-0.792
GCCCGGA	-0.337
CGCUAAG	-0.457
GGUGCUA	0.88
GUUUACG	-0.169
AUAUGAU	-0.205
GAAUAGU	0.217
CCAACCA	-0.668
ACGCUGC	-0.464
GGUGGUG	3.25
CUGCUCU	-0.923
UCCUAUA	-0.668
CCAUUGC	-0.704
UGUCGCA	-0.679
ACUGGAG	1.21
CUACGAG	-0.475
UUUCGGU	-0.253
GUUCUCA	-0.522
CUCAUCA	-0.715

Sequence	RNAcompete 7-mer binding Z-score
UAUUAAU	-0.635
AGGAACG	1.46
UAGAUUA	-0.333
GUUUGUC	-0.344
UCGAUUA	-0.573
GACUGUU	-0.843
CCCCGAG	-0.224
CACGGUG	0.508
GUUGAGC	0.676
UUGGUAG	1.46
GUCAUCC	-0.592
CGGCCCC	-0.635
CGCAUGG	0.399
GAUCGAG	0.65
GAUUUGA	-0.00877
CAUAACA	-0.311
AAACGCG	0.0786
GGUAGGU	2.96
ACUUGAU	-0.781
CCGGAUC	-0.391
GUCGUGU	0.119
CAUUGAU	-0.5
CGUCCAU	-0.606
AACAAGA	0.341
ACCACUA	-0.708

Sequence	RNAcompete 7-mer binding Z-score
AGGCAAC	0.13
CAGCUAC	-0.573
CCCUGGU	-0.646
UGAGCUA	0.075
UAAUCAG	0.0641
CGAGAGG	1.46
GUAUACU	-0.468
GCUUGGU	-0.253
UCUAGCC	-0.857
GUACAAU	0.0896
UAGAACG	0.312
CGCAUGC	-0.475
AACGGAG	2.34
CAAGAGG	1.27
GUGAGUC	0.636
CCAUACC	-0.533
CUUUGAC	-0.912
AUGAUUC	-0.606
ACACAGU	-0.238
AAAACAA	0.243
UGAAACA	-0.271
UAGCUGA	-0.224
CCGGCAA	-0.526
AUAAACC	-0.409
AUGCCCA	-0.828

Sequence	RNAcompete 7-mer binding Z-score
GGCUAUA	0.0167
GGGGACU	1.3
CGUGCCA	-0.475
UCCACCA	-0.737
GUCCUUG	-0.584
CUACAAG	-0.413
AGACCAU	-0.952
AACAGGC	1.62
GCGGGAC	1.8
CAGCCUU	-0.781
AUACCCU	-0.799
CGUCGCC	-0.741
AAUCAGU	0.221
CGUUGCA	-0.643
AUAGAGU	0.468
AAUUUGG	0.687
AUAGGAU	1.55
